# Results as given in PubChem BioAssay AID485360 (National Center for Advancing Translational Sciences (NCATS), 2010).
# In all, about 230,000 compounds went through this assay and about 1,500 (0.65%) were called active. The shares of active, inactive and inconclusive entries below differ from those in the screen. Calls come from the whole dose curve; as a rule, active = well fitted inhibition curve with a large enough effect; inconclusive = small, poorly fitted or top-dose-only effect; inactive = no such curve, though single readings can be large or run the other way. Potencies of inconclusive entries are doubtful fits and often do not repeat.
# Target: Lethal(3)malignant brain tumor-like protein 1 (Homo sapiens) (UniProt Q9Y468)
# Experiment: qHTS Assay for the Inhibitors of L3MBTL1; note: nearly all actives have a fitted effect of over 60% in size
# Details: AlphaScreen L3MBTL1–H3K9me1 peptide binding; series mostly up to 57.1 µM
# In short: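 First, the protein-peptide complex forms for 30 min at room temperature (L3MBTL1 50 nM, biotinylated H3K9me1 peptide 75 nM). Next, compounds are pin-transferred and incubated 30 min. Finally, AlphaScreen beads are added and read after 30 min.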
# Potency is the fitted concentration of half-maximal effect; tags give direction and shape of the fitted curve.
# UniProt Q9Y468, sequence (Q9Y468 whole entry, looked up): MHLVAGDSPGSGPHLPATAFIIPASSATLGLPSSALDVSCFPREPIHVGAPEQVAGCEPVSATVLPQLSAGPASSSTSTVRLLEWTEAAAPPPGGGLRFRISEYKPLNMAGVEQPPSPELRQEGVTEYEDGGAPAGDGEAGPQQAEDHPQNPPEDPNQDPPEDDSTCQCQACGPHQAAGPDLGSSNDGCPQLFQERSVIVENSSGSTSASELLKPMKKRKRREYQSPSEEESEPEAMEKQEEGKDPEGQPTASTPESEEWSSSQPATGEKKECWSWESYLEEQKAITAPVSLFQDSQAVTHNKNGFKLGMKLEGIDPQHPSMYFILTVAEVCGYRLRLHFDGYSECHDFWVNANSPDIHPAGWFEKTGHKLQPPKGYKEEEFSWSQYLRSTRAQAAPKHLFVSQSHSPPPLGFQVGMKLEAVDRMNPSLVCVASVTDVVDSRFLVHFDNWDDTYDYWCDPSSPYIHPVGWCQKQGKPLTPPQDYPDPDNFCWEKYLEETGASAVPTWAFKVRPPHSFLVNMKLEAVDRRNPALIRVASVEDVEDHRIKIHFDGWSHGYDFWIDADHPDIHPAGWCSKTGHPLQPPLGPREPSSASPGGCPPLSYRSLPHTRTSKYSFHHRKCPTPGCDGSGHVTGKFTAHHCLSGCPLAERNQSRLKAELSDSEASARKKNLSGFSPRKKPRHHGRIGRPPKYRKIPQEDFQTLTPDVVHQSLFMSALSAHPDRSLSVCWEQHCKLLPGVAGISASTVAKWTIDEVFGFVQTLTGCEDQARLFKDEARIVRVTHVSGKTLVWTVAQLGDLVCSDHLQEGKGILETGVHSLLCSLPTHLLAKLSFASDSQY
row,Structure (SMILES),Potency
1,C/C(CCC(C)C)=N\Nc1cc(C)c2ccccc2n1,"inconclusive: 0.631 µM [inhibitor, full curve]"
2,Cc1cc(C(=O)COc2ccc3ccc(=O)oc3c2)c(C)n1Cc1cccs1,"inconclusive: 4.47 µM [inhibitor, single point]"
3,O=c1[nH]c(CN2CCN(c3ccc(F)cc3)CC2)nc2ccccc12,inactive
4,O=C(O)c1cccc(S(=O)(=O)Nc2ccc3oc(=O)sc3c2)c1,inactive
5,C/C(=N\OCC(=O)Nc1ccc2c(c1)OCCO2)c1ccc2c(c1)OCCO2,"inconclusive: 0.794 µM [inhibitor, single point]"
6,COc1ccccc1OCCn1c(SCC(=O)O)nc2ccccc21,"inconclusive: 39.8 µM [inhibitor, single point]"
7,O=C(O)c1ccc(-c2sc(Nc3ccccc3)n[n+]2-c2ccccc2)cc1,inactive
8,CCN(CC)C(=O)C(=O)c1cccn1-c1cccc(OC)c1C#N,inactive
9,C/C(=N/NC(=O)Cc1cc(=O)[nH][nH]1)c1ccc([N+](=O)[O-])cc1,"inconclusive: 5.01 µM [inhibitor, partial curve]"
10,CC1(O)CC(c2ccc(Cl)cc2)=NN1C(=O)c1ccc([N+](=O)[O-])cc1 (stereo not given),"inconclusive: 44.7 µM [inhibitor, partial curve, poor fit]"
11,COc1cccc(OC)c1OCCNCCO,"inconclusive: 3.16 µM [inhibitor, single point]"
12,COc1cccc(C(C(=O)NC2CCCCC2)N(C(=O)c2ccco2)c2ccc(-n3cnnn3)c(C)c2)c1 (stereo not given),"inconclusive: 5.01 µM [inhibitor, single point]"
13,COc1ccc(C(C[N+](=O)[O-])c2c(-c3ccccc3)cc3ccccn23)cc1 (stereo not given),"inconclusive: 14.1 µM [inhibitor, partial curve, poor fit]"
14,Cc1ccc(/C=N/NC(=S)N2CCOCC2)cc1,"inconclusive: 25.1 µM [inhibitor, single point]"
15,Cc1ccc(NC(=O)CN(C)C2CCCCC2)cc1Br,inactive
16,COc1ccc(-n2c(Cc3cccn3C)nnc2SCC(=O)Nc2ccc(C)cc2)cc1,"inconclusive: 6.31 µM [inhibitor, single point]"
17,CCN(C(=O)CN1C(=S)NC(C)(C)CC1C)c1ccc(C)c(C)c1 (stereo not given),"inconclusive: 5.62 µM [inhibitor, partial curve]"
18,O=C(NNc1nc2ccccc2s1)Nc1ccccc1,inactive
19,CCN(CC)CCNC(=O)CCn1c(=S)[nH]c2cc3c(cc2c1=O)OCO3,inactive
20,O=C(N/N=C/c1cc(Br)c(Br)o1)c1ccc2c(c1)OCCO2,"inconclusive: 28.2 µM [inhibitor, single point]"
21,COc1cccc(CN2CCN(Cc3ccccc3C(F)(F)F)CC2)c1,inactive
22,COc1ccc(C)cc1NC(=O)c1ccc(CN2CCN(c3ccccc3)CC2)cc1,inactive
23,Cc1cc(OCC(=O)NC(C)C)cc(C)c1Cl,"inconclusive: 5.01 µM [inhibitor, single point]"

row,Structure (SMILES),Potency
1,Cc1cccnc1NC(=O)CSc1ncnc2sc(C)c(C)c12,"inconclusive: 25.1 µM [inhibitor, single point]"
2,O=C(Nc1ccc(S(=O)(=O)Nc2nccs2)cc1)c1cc(-c2ccncc2)nc2ccccc12,"inconclusive: 12.6 µM [inhibitor, partial curve]"
3,C=CCN1C(=O)/C(=C\c2ccco2)C(C(=O)OC)=C1C,"inconclusive: 4.47 µM [inhibitor, full curve]"
4,CCOc1ccc(-n2ccnc2SCC(=O)N2CCCc3ccccc32)cc1,"inconclusive: 39.8 µM [inhibitor, single point]"
5,Cc1cc(/C=C2\SC(=S)N(Cc3ccco3)C2=O)c(C)n1-c1cccnc1,inactive
6,Cc1cc(C(=O)C(C)Cl)c(C)n1Cc1ccco1 (stereo not given),inactive
7,CC[C@]12c3[nH]c4cc(-c5ccco5)ccc4c3CCN1C(=O)[C@@H](CC(=O)NC/C=C(\C)CCC=C(C)C)C[C@@H]2C(=O)N1CCN(C(=O)c2ccco2)CC1,"inconclusive: 28.2 µM [inhibitor, single point]"
8,CCCS(=O)(=O)N1CCN(S(=O)(=O)c2ccc(F)cc2)CC1,"inconclusive: 7.08 µM [inhibitor, single point]"
9,O=C(Nc1ccc(NC(=O)c2ccccn2)cc1)C(=O)Nc1ccc2c(c1)OCCO2,"inconclusive: 0.158 µM [inhibitor, full curve, poor fit]"
10,O=C1NC(=Nc2ccccc2)S/C1=C\c1cccnc1,inactive
11,NC(=O)c1ccc(SCC(=O)OCC(=O)N2CCCC2=O)c([N+](=O)[O-])c1,inactive
12,CCOC(=O)c1nnn(-c2nonc2N)c1CNc1ccccc1,"inconclusive: 3.16 µM [inhibitor, single point]"
13,CC(C)(C)NCCOCCOc1ccccc1-c1ccccc1,inactive
14,N#Cc1ccsc1NC(=O)CN1C(=O)NC2(CCCC2)C1=O,"inconclusive: 31.6 µM [inhibitor, single point]"
15,CC(=O)c1ccc(N2CCN(C(=O)c3ccco3)CC2)c(F)c1,"inconclusive: 3.55 µM [inhibitor, partial curve]"
16,O=c1oc(-c2ccc([N+](=O)[O-])cc2)nc2ccccc12,"inconclusive: 0.1 µM [inhibitor, full curve, poor fit]"
17,C#CCOCCOCCOCCNc1nc(N2CCN(C(=O)[C@H](CCCCN)n3cc(CN)nn3)CC2)nc(N2CCN(C(=O)[C@H](CC(N)=O)n3cc(C(N)[C@H](C)CC)nn3)CC2)n1 (stereo not given in full),inactive
18,O=C(O)c1ccc(NC(=O)c2ccccc2NC(=O)c2ccccc2Br)cc1,inactive
19,COc1ccc(Nc2ccc([N+](=O)[O-])cc2[N+](=O)[O-])cc1,"inconclusive: 3.98 µM [inhibitor, full curve]"
20,COCCCNC(=S)NNC(=O)c1ccccn1,active: 8.91 µM
21,COc1cccc(-c2sc3ccccc3c2-c2ccc(OCCN(C)C)cc2)c1,inactive
22,N#CCCN(C(=O)COC(=O)c1ccc(S(=O)(=O)Nc2ccccc2)cc1)c1ccccc1,"inconclusive: 6.31 µM [inhibitor, single point]"
